# In the supplement of paper PMC8728848:
# The list shows a part of the results.
# B1: Alpha-agglutinin (Saccharomyces cerevisiae) (protein)
# chain: MFTFLKIILWLFSLALASAININDITFSNLEITPLTANKQPDQGWTATFDFSIADASSIREGDEFTLSMPHVYRIKLLNSSQTATISLADGTEAFKCYVSQQAAYLYENTTFTCTAQNDLSSYNTIDGSITFSLNFSDGGSSYEYELENAKFFKSGPMLVKLGNQMSDVVNFDPAAFTENVFHSGRSTGYGSFESYHLGMYCPNGYFLGGTEKIDYDSSNNNVDLDCSSVQVYSSNDFNDWWFPQSYNDTNADVTCFGSNLWITLDEKLYDGEMLWVNALQSLPANVNTIDHALEFQYTCLDTIANTTYATQFSTTREFIVYQGR
# Columns and labels:
# Test in all cases: glycan array binding signal (z-score within array); higher = stronger binding
# Conditions in all cases: glycan notation: IUPAC condensed, linker removed
# [1] = target: Fuc(a1-2)Gal
# Method in brief: (§1)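 Glycan array data came from 3228 arrays in the Consortium for Functional Glycomics database, and only arrays with an available protein sequence were kept. Glycan names were put into IUPAC-condensed notation, and columns mapping to the same glycan were averaged. The binding signal is a within-array Z-score, averaged across arrays of one protein sequence run at different concentrations or buffers and across linkers. A negative Z-score can be read as non-binding.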
# [2] = target: Fuc(a1-2)Gal(b1-3)GalNAc
# Method in brief: as §1
# [3] = target: Fuc(a1-2)Gal(b1-3)GalNAc(b1-3)Gal
# Method in brief: as §1
# [4] = target: Fuc(a1-2)Gal(b1-3)GalNAc(b1-3)Gal(a1-4)Gal(b1-4)Glc
# Method in brief: as §1
# [5] = target: Fuc(a1-2)Gal(b1-3)GalNAc(b1-3)Gal(b1-4)Glc
# Method in brief: as §1
# [6] = target: Fuc(a1-2)Gal(b1-3)GalNAc(b1-4)[Neu5Ac(a2-3)]Gal(b1-4)Glc
# Method in brief: as §1
# [7] = target: Fuc(a1-2)Gal(b1-3)[Fuc(a1-4)]GlcNAc
# Method in brief: as §1
# [8] = target: Fuc(a1-2)Gal(b1-4)Glc
# Method in brief: as §1
# [9] = target: Fuc(a1-2)Gal(b1-4)GlcNAc
# Method in brief: as §1
# [10] = target: Fuc(a1-2)Gal(b1-4)GlcNAc(b1-3)Gal(b1-4)GlcNAc
# Method in brief: as §1
# [11] = target: Fuc(a1-2)Gal(b1-4)GlcNAc(b1-3)Gal(b1-4)GlcNAc(b1-3)Gal(b1-4)GlcNAc
# Method in brief: as §1
# [12] = target: Fuc(a1-2)Gal(b1-4)[Fuc(a1-3)]GalNAc(b1-3)Gal(b1-4)[Fuc(a1-3)]GlcNAc
# Method in brief: as §1
# [13] = target: Fuc(a1-2)Gal(b1-4)[Fuc(a1-3)]GalNAc(b1-3)Gal(b1-4)[Fuc(a1-3)]GlcNAc(b1-3)Gal(b1-4)[Fuc(a1-3)]GalNAc
# Method in brief: as §1
# [14] = target: Fuc(a1-2)Gal(b1-4)[Fuc(a1-3)]GlcNAc
# Method in brief: as §1
# [15] = target: Fuc(a1-2)GlcNAc
# Method in brief: as §1
# [16] = target: Fuc(a1-2)[Gal(a1-3)]Gal
# Method in brief: as §1
# [17] = target: Fuc(a1-2)[Gal(a1-3)]Gal(b1-3)GlcNAc
# Method in brief: as §1
# [18] = target: Fuc(a1-2)[Gal(a1-3)]Gal(b1-4)Glc
# Method in brief: as §1
# [19] = target: Fuc(a1-2)[Gal(a1-3)]Gal(b1-4)GlcNAc
# Method in brief: as §1
# [20] = target: Fuc(a1-2)[Gal(a1-3)]Gal(b1-4)[Fuc(a1-3)]GlcNAc
# Method in brief: as §1
# [21] = target: Fuc(a1-2)[Gal(a1-4)]Gal(b1-4)GalNAc
# Method in brief: as §1
# [22] = target: Fuc(a1-2)[GalNAc(a1-3)]Gal
# Method in brief: as §1
# [23] = target: Fuc(a1-2)[GalNAc(a1-3)]Gal(b1-3)GlcNAc
# Method in brief: as §1
# [24] = target: Fuc(a1-2)[GalNAc(a1-3)]Gal(b1-4)Glc
# Method in brief: as §1
# [25] = target: Fuc(a1-2)[GalNAc(a1-3)]Gal(b1-4)GlcNAc
# Method in brief: as §1
# [26] = target: Fuc(a1-2)[GalNAc(a1-3)]Gal(b1-4)[Fuc(a1-3)]GlcNAc
# Method in brief: as §1
# [27] = target: Fuc(a1-2)[GalNAc(a1-4)]Gal(b1-4)GlcNAc
# Method in brief: as §1
# [28] = target: Fuc(a1-3)GlcNAc
# Method in brief: as §1
# [29] = target: Fuc(a1-3)[Gal(b1-4)]GlcNAc
# Method in brief: as §1
# [30] = target: Fuc(a1-3)[Gal(b1-4)]GlcNAc(b1-4)Gal(b1-4)[Fuc(a1-3)]GlcNAc
# Method in brief: as §1
# [31] = target: Fuc(a1-3)[Gal(b1-4)]GlcNAc(b1-4)Gal(b1-4)[Fuc(a1-3)]GlcNAc(b1-4)Gal(b1-4)[Fuc(a1-3)]GlcNAc
# Method in brief: as §1
# [32] = target: Fuc(a1-3)[Gal3S(b1-4)]GlcNAc
# Method in brief: as §1
# [33] = target: Fuc(a1-3)[GalNAc(b1-4)]Gal(b1-4)GlcNAc
# Method in brief: as §1
# [34] = target: Fuc(a1-4)GlcNAc
# Method in brief: as §1
# [35] = target: Fuc(b1-3)GlcNAc
# Method in brief: as §1
# [36] = target: Gal(a1-2)Gal
# Method in brief: as §1
# [37] = target: Gal(a1-3)Gal
# Method in brief: as §1
# [38] = target: Gal(a1-3)Gal(b1-3)Glc
# Method in brief: as §1
# [39] = target: Gal(a1-3)Gal(b1-3)GlcNAc
# Method in brief: as §1
# [40] = target: Gal(a1-3)Gal(b1-4)GlcNAc
# Method in brief: as §1
# [41] = target: Gal(a1-3)Gal(b1-4)[Fuc(a1-3)]GalNAc
# Method in brief: as §1
# [42] = target: Gal(a1-3)GlcNAc
# Method in brief: as §1
# [43] = target: Gal(a1-3)[Gal(a1-4)]Gal(b1-4)GlcNAc
# Method in brief: as §1
# [44] = target: Gal(a1-4)Gal(b1-4)Gal
# Method in brief: as §1
# [45] = target: Gal(a1-4)Gal(b1-4)GalNAc
# Method in brief: as §1
# [46] = target: Gal(a1-4)GlcNAc
# Method in brief: as §1
# [47] = target: Gal(a1-6)Glc
# Method in brief: as §1
# [48] = target: Gal(b1-2)Gal
# Method in brief: as §1
# [49] = target: Gal(b1-3)Gal
# Method in brief: as §1
# [50] = target: Gal(b1-3)GalNAc
# Method in brief: as §1
# [51] = target: Gal(b1-3)GalNAc(b1-3)Gal(a1-4)Gal(b1-4)Glc
# Method in brief: as §1
# [52] = target: Gal(b1-3)GalNAc(b1-3)Gal(b1-4)Glc
# Method in brief: as §1
# [53] = target: Gal(b1-3)GalNAc(b1-3)Gal(b1-4)GlcNAc
# Method in brief: as §1
# [54] = target: Gal(b1-3)GalNAc(b1-4)Gal(b1-4)Glc
# Method in brief: as §1
# [55] = target: Gal(b1-3)GalNAc(b1-4)[Neu5Ac(a2-3)]Gal(b1-4)Glc
# Method in brief: as §1
# [56] = target: Gal(b1-3)[Fuc(a1-4)]GlcNAc
# Method in brief: as §1
# [57] = target: Gal(b1-3)[Fuc(a1-4)]GlcNAc(b1-3)Gal(b1-4)GlcNAc
# Method in brief: as §1
# [58] = target: Gal(b1-3)[Fuc(a1-4)]GlcNAc(b1-3)Gal(b1-4)[Fuc(a1-3)]GlcNAc
# Method in brief: as §1
# [59] = target: Gal(b1-3)[GlcNAc(b1-6)]GalNAc
# Method in brief: as §1
# [60] = target: Gal(b1-3)[GlcNAc(b1-6)]GlcNAc
# Method in brief: as §1
binder,measurement,setting,value
B1,glycan array binding signal (z-score),[1],-0.186
same,glycan array binding signal (z-score),[2],-0.147
same,glycan array binding signal (z-score),[3],-0.245
same,glycan array binding signal (z-score),[4],-0.21
same,glycan array binding signal (z-score),[5],6.41
same,glycan array binding signal (z-score),[6],-0.232
same,glycan array binding signal (z-score),[7],-0.196
same,glycan array binding signal (z-score),[8],-0.195
same,glycan array binding signal (z-score),[9],-0.085
same,glycan array binding signal (z-score),[10],-0.207
same,glycan array binding signal (z-score),[11],-0.234
same,glycan array binding signal (z-score),[12],-0.238
same,glycan array binding signal (z-score),[13],-0.187
same,glycan array binding signal (z-score),[14],-0.239
same,glycan array binding signal (z-score),[15],-0.236
same,glycan array binding signal (z-score),[16],-0.233
same,glycan array binding signal (z-score),[17],-0.249
same,glycan array binding signal (z-score),[18],-0.207
same,glycan array binding signal (z-score),[19],-0.219
same,glycan array binding signal (z-score),[20],-0.112
same,glycan array binding signal (z-score),[21],0.136
same,glycan array binding signal (z-score),[22],-0.107
same,glycan array binding signal (z-score),[23],-0.098
same,glycan array binding signal (z-score),[24],0.558
same,glycan array binding signal (z-score),[25],0.15
same,glycan array binding signal (z-score),[26],-0.153
same,glycan array binding signal (z-score),[27],-0.182
same,glycan array binding signal (z-score),[28],-0.02
same,glycan array binding signal (z-score),[29],-0.236
same,glycan array binding signal (z-score),[30],-0.213
same,glycan array binding signal (z-score),[31],-0.167
same,glycan array binding signal (z-score),[32],-0.164
same,glycan array binding signal (z-score),[33],-0.194
same,glycan array binding signal (z-score),[34],-0.216
same,glycan array binding signal (z-score),[35],-0.228
same,glycan array binding signal (z-score),[36],-0.096
same,glycan array binding signal (z-score),[37],0.117
same,glycan array binding signal (z-score),[38],-0.222
same,glycan array binding signal (z-score),[39],-0.208
same,glycan array binding signal (z-score),[40],-0.248
same,glycan array binding signal (z-score),[41],-0.25
same,glycan array binding signal (z-score),[42],-0.133
same,glycan array binding signal (z-score),[43],0.062
same,glycan array binding signal (z-score),[44],-0.105
same,glycan array binding signal (z-score),[45],0.128
same,glycan array binding signal (z-score),[46],-0.029
same,glycan array binding signal (z-score),[47],0.966
same,glycan array binding signal (z-score),[48],-0.205
same,glycan array binding signal (z-score),[49],-0.217
same,glycan array binding signal (z-score),[50],-0.071
same,glycan array binding signal (z-score),[51],-0.093
same,glycan array binding signal (z-score),[52],8.68
same,glycan array binding signal (z-score),[53],-0.257
same,glycan array binding signal (z-score),[54],-0.045
same,glycan array binding signal (z-score),[55],-0.209
same,glycan array binding signal (z-score),[56],-0.231
same,glycan array binding signal (z-score),[57],-0.23
same,glycan array binding signal (z-score),[58],-0.247
same,glycan array binding signal (z-score),[59],-0.255
same,glycan array binding signal (z-score),[60],-0.008
